Measurements published in PMC6389929.
Results are given in words; binding and its absence hold for the method and conditions named. Binding seen in cells or lysates may run through a third protein. Some binding calls cover weakened binding; strength is not graded here. For part of these data: Tags and fused reporters may be left off the sequences shown. One block for each molecule: values may come before it.

The chains behind the UniProt entries cited, without tags or fusion partners. Where a name states a change or a piece, a line headed by the entry shows the natural chain unless it says otherwise.
UniProt Q93009: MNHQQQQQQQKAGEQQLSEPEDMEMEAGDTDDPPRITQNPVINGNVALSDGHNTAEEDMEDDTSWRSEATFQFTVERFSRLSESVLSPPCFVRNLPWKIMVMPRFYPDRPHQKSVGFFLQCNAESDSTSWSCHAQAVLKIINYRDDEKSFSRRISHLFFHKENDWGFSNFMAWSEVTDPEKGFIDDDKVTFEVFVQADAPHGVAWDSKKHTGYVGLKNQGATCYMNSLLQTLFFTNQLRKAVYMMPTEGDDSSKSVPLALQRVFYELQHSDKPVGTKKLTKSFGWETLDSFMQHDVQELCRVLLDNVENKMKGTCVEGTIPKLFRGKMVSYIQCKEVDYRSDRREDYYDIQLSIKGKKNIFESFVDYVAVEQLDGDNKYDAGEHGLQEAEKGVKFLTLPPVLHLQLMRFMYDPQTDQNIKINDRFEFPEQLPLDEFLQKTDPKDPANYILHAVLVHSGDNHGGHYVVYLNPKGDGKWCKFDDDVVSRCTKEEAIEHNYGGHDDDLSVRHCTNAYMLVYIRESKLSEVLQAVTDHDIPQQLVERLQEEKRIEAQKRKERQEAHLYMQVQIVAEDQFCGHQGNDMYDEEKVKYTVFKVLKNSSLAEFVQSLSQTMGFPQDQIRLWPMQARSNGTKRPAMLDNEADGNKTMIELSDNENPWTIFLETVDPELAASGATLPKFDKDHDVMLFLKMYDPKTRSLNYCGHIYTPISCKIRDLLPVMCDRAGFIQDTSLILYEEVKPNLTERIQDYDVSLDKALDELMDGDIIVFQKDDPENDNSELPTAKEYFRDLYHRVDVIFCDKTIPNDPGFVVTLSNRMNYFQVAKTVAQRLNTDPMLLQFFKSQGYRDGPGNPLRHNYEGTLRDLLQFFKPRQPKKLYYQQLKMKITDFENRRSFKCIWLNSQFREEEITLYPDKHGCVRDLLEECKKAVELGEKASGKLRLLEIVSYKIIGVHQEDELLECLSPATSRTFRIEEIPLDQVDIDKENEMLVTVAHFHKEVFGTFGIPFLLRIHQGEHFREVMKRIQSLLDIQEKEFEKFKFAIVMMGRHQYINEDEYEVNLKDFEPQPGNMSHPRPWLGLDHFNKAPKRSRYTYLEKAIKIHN
UniProt Q96Q89: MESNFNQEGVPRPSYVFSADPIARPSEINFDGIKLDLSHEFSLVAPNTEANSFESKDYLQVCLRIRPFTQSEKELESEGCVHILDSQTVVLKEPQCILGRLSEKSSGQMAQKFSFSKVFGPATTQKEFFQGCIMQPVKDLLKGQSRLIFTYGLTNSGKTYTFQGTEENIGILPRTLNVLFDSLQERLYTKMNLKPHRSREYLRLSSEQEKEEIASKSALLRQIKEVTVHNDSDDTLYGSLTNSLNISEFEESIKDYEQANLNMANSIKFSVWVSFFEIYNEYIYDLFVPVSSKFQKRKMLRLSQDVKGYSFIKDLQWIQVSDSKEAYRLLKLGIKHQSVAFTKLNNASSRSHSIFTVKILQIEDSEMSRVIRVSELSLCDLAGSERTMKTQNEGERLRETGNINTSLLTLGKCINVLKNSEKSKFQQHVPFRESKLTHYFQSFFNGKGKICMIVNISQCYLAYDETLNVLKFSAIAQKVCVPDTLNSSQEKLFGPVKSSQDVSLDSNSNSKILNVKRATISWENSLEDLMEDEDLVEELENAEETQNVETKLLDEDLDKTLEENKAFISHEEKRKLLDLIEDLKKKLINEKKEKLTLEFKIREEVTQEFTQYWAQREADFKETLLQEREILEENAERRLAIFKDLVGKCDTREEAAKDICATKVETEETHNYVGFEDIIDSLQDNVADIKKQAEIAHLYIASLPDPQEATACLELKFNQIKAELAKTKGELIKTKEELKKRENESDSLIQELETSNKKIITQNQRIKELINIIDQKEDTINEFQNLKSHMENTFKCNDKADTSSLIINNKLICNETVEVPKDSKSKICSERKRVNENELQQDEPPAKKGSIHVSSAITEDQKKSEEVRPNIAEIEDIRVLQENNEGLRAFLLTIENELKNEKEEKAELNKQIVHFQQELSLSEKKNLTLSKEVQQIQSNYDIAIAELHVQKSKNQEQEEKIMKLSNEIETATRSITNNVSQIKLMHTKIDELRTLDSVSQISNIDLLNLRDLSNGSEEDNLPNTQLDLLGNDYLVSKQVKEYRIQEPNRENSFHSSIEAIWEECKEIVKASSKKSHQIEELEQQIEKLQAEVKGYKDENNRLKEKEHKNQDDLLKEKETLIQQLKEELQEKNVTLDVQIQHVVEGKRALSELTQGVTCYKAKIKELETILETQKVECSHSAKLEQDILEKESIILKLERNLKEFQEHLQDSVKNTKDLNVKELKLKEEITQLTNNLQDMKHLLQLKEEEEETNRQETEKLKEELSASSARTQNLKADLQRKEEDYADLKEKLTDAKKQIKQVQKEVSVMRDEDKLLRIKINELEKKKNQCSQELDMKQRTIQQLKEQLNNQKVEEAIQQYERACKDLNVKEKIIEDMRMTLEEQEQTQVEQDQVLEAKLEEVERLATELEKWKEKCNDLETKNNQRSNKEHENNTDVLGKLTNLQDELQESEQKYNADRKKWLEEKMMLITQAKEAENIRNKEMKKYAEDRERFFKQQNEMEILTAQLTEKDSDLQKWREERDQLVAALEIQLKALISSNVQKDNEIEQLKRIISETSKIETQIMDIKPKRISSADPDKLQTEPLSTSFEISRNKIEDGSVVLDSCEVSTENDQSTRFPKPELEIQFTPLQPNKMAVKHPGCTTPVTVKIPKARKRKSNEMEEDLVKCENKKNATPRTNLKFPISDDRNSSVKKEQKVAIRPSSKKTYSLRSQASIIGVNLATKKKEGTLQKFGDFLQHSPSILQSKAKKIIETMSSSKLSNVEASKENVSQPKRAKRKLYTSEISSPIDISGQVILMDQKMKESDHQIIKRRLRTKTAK
UniProt P63208: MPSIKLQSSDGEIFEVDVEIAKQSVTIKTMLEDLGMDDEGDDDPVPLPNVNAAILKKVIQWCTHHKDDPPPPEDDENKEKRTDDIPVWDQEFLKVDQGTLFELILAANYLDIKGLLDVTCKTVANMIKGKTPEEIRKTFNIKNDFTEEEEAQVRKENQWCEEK

What was measured:
FLAG-tagged FBXO38 (WT) [1] = molecular target: T1, FLAG-tagged FBXO38 (WT) (UniProt Q6PIJ6); assay: co-IP; Supplementary Fig. S3: recovery of endogenous KIF20B and transiently expressed HA-KIF20B with FLAG-FBXO38 compared with FLAG-USP11 and FLAG-β-gal; cells not given
T1 sequence: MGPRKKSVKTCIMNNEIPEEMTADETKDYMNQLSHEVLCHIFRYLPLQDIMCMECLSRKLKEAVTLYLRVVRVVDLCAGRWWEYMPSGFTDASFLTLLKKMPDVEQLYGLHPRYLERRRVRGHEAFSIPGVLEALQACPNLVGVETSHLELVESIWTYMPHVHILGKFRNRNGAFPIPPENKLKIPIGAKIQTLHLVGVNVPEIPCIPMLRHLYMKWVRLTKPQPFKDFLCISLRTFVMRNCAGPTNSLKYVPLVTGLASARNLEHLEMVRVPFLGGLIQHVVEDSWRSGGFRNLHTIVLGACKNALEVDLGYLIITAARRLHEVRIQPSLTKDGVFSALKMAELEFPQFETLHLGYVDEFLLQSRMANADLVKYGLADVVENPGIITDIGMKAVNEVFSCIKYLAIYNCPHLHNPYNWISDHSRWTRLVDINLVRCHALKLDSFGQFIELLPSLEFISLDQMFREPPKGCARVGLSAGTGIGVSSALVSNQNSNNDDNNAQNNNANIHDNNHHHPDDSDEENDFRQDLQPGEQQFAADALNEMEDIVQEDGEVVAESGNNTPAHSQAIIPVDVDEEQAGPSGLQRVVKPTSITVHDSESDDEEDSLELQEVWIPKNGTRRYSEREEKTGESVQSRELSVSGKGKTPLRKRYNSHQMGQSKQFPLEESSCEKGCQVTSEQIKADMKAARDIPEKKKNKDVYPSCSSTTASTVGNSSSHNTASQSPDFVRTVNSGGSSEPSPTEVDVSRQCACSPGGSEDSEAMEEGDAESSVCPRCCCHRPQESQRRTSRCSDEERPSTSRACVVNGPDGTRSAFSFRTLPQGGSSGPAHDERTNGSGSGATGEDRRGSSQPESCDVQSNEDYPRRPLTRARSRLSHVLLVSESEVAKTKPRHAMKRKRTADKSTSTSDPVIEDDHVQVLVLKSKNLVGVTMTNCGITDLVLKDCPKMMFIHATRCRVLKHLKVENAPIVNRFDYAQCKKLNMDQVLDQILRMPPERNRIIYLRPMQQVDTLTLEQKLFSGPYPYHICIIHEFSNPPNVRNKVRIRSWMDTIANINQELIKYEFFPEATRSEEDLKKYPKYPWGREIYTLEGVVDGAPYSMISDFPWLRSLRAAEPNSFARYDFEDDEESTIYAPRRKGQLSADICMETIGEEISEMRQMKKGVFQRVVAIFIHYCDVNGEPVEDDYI

FLAG-tagged FBXO38 (WT) [2] = molecular target: T1, FLAG-tagged FBXO38 (WT); assay: co-IP; 293T cells co-transfected with HA-KIF20B and FLAG-FBXO38 WT or ΔFBX; lysis buffer 50 mM Tris-HCl pH 8.0, 150 mM NaCl, 10% glycerol, 0.1% NP-40; anti-FLAG M2 resin; Western blot for FLAG, HA and Skp1
[3] = molecular target: T2, FLAG-FBXO38 mutant lacking the first 77 amino acids that contains the F-Box domain (FLAG-FBXO38ΔFBX) (UniProt Q6PIJ6); assay: as above
T2 sequence: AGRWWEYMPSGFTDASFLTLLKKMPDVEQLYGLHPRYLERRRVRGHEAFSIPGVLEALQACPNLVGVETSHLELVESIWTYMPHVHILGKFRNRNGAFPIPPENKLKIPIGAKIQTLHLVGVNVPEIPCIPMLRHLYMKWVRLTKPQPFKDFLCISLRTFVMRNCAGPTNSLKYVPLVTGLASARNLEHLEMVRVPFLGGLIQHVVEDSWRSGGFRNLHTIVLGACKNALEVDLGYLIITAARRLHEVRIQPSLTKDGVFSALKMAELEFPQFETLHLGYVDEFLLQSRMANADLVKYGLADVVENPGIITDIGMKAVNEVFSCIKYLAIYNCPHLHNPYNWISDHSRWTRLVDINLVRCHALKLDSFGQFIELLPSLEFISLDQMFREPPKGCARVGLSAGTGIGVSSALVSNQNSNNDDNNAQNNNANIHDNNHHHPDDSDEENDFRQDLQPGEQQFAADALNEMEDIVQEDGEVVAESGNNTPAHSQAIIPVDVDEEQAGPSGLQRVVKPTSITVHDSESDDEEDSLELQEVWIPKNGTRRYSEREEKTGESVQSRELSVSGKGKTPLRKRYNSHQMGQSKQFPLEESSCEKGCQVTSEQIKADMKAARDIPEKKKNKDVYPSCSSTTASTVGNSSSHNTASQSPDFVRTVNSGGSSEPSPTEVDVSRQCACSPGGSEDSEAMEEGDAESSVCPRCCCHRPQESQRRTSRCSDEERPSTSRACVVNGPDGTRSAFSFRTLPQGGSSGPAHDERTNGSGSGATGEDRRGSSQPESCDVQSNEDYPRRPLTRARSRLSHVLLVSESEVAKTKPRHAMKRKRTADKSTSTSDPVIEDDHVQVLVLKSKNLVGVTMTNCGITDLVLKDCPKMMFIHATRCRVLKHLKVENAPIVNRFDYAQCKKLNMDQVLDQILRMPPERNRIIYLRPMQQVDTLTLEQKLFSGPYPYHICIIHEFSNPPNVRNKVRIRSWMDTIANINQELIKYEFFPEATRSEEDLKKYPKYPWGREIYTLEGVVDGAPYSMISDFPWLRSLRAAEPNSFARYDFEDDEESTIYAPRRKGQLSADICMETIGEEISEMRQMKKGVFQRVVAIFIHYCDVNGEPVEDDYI

FLAG-tagged FBXO38 (WT) [4] = molecular target: T1, FLAG-tagged FBXO38 (WT); assay: co-IP; AGS cells transfected with FLAG-FBXO38 for 48 hours; lysis buffer 50 mM Tris-HCl pH 8.0, 150 mM NaCl, 10% glycerol, 0.1% NP-40; anti-FLAG M2 resin; Western blot for endogenous KIF20B
FLAG-tagged FBXO38 (WT) [5] = molecular target: T1, FLAG-tagged FBXO38 (WT); assay: co-IP; HEK293T cells co-transfected with FLAG-FBXO38 and myc-USP7 constructs; RIPA buffer; M2 anti-FLAG resin overnight at 4 °C; Western blot for FLAG and myc
[6] = molecular target: myc-USP7 Ubl2 pocket mutant (Ubl2), D762R,D764R (UniProt Q93009); assay: co-IP; AGS cells transfected with myc-USP7 constructs alone; RIPA buffer; anti-Myc resin overnight at 4 °C; Western blot for endogenous FBXO38
myc-tagged USP7 WT = myc-tagged USP7 WT (UniProt Q93009); assay: as above

Molecule: Kinesin Family member 20B (KIF20B), endogenous (from UniProt Q96Q89 1-1820)
binding (FLAG-tagged FBXO38 (WT) [4]): binds | binding (FLAG-tagged FBXO38 (WT) [1]): binds

Molecule: SKP1 (endogenous) (from UniProt P63208 1-163)
binding (FLAG-tagged FBXO38 (WT) [2]): binds | binding [3]: no binding

Molecule: myc-USP7 Ubl2 pocket mutant (Ubl2), D762R,D764R (from UniProt Q93009 1-1102) (enzyme)
binding (FLAG-tagged FBXO38 (WT) [5]): binds

B1: F-box protein FBXO38 (endogenous) (protein, UniProt Q6PIJ6 1-1188)
chain: T1 sequence
binding [6]: binds | binding (myc-tagged USP7 WT): binds

The next lines start with the values.

binding (FLAG-tagged FBXO38 (WT) [1]): binds | binding (FLAG-tagged FBXO38 (WT) [2]): binds | binding [3]: binds
Molecule: HA-tagged KIF20B (from UniProt Q96Q89 1-1820)

binding (FLAG-tagged FBXO38 (WT) [5]): no binding
Molecule: myc-USP7 NTD pocket mutant (DW), D164A,W165A (from UniProt Q93009 1-1102) (enzyme)

binding (FLAG-tagged FBXO38 (WT) [5]): binds
Molecule: myc-tagged USP7 WT (from UniProt Q93009 1-1102) (enzyme)
